# Test results taken from PubChem BioAssay AID651820 (National Center for Advancing Translational Sciences (NCATS), 2012).
# The whole screen tested about 340,000 compounds, of which about 12,000 (3.5%) were called active. The inconclusive results got no clear call from the source; some entries with a clear call stand among them for comparison. Calls follow the shape of the dose curve; as a rule, active = well fitted inhibition curve with a large enough effect; inconclusive = small, poorly fitted or top-dose-only effect, or another doubt; inactive = no such curve, though single readings can be large or run the other way. No potency is given beside an inconclusive call; the fits are too rough.
# Experiment: qHTS Assay for Inhibitors of Hepatitis C Virus (HCV)
# Settings: Huh7.5.1 HCVcc-Cre (HCVcc is cell-culture hepatitis C virus) infection, luciferase reporter, 44 h; activity change, negative = inhibition: at 41.8 µM (top of the series) unless noted
# Outline: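 Infectious HCV cell culture screen: compound-treated cells (1,000/well, pre-plated 4 h) are infected with HCVcc-Cre at roughly 0.5 moi and grown 44 h. Infection is quantified by luciferase signal after 15 min substrate incubation at room temperature.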
# % is scaled to controls: 0 for no effect and ±100 for the full control effect; potency is read from the fitted curve at half-maximal effect; tags tell the direction and shape of the fitted curve.
SMILES,Potency,"activity change, negative = inhibition"
Cc1ccc(OCC(=O)Nc2cccc(S(=O)(=O)N3CCCCCC3)c2)cc1C,"inconclusive [inhibitor, single point]",
N=C1/C(=C/c2coc3ccccc3c2=O)C(=O)N=C2SC(c3ccco3)=NN12,,inactive: -11.5%
CCOc1cc(C2c3c(n[nH]c3C)C(=O)N2c2ccc(Br)cc2)ccc1O (stereo unspecified),active: 25.1 µM,
COc1ccc(-c2[nH]c(-c3ccccc3)nc2SCC(=O)Nc2nccs2)cc1,active: 14.1 µM,
O=C(NCC(c1ccco1)N1CCCCC1)c1cnc(Cl)c(Cl)c1 (stereo unspecified),"inconclusive [inhibitor, single point]",
O=C1CCc2cc(OCCCCc3nnnn3C3CCCCC3)ccc2N1,"inconclusive [inhibitor, partial curve]",
COc1cc(NC(=O)c2cc([N+](=O)[O-])ccc2NC(=O)CN2CCN(c3ccccn3)CC2)cc(OC)c1,"inconclusive [inhibitor, single point]",
O=C(CCN1CCCCC1)Nc1ccc(Cl)cc1C(=O)c1ccccc1,"inconclusive [inhibitor, single point]",
CC(C)CCNCC(=O)NC(c1ccccc1)c1ccccc1,,inactive: 8.87%
Cc1ccc(C)c2[nH]c(=O)c(C(c3nnnn3Cc3ccco3)N3CCc4ccccc4C3)cc12 (stereo unspecified),"inconclusive [inhibitor, single point]",
O=C(Cn1ccc([N+](=O)[O-])n1)N1CCc2ccccc21,"inconclusive [inhibitor, single point]",
CCOc1ccc(C(=O)Nc2ccccc2N2CCN(C(=O)c3ccccc3)CC2)cc1[N+](=O)[O-],"inconclusive [inhibitor, full curve]",
CC(=O)n1cc(-c2ccncc2)c2ccccc21,active: 10 µM,
COc1ccc(C)cc1S(=O)(=O)N(CC(=O)NCc1ccco1)c1ccc(C)cc1,"inconclusive [inhibitor, single point]",
CCCCCn1c(=O)c(C(=O)NCc2ccccn2)c(O)c2ccccc21,"inconclusive [inhibitor, partial curve]",
O=C(Cn1cnc2ccc(Cl)cc2c1=O)NC1CCS(=O)(=O)C1 (stereo unspecified),,inactive: 18.7%
O=C1C2CCCN2C(c2cccnc2)N1c1cccc(Cl)c1 (stereo unspecified),,inactive: 0.445%
Cc1ccc(CN(CC(=O)NCCc2ccccc2)C(=O)CCCC(=O)Nc2cc(C)on2)cc1,"inconclusive [inhibitor, single point]",
COc1cc(CC(=O)Nc2ccc3c(c2)CCC3)cc(OC)c1OC,"inconclusive [inhibitor, partial curve]",
COc1ccccc1N(CC(=O)Nc1ccc(Br)cc1F)S(=O)(=O)c1cccs1,"inconclusive [inhibitor, single point]",
CC(=O)[C@@]1(O)CCC2C3C=CC4=CC(=O)CC[C@]4(C)C3CC[C@@]21C (stereo partly specified),,inactive: 9.54%
O=S(=O)(c1ccc(NC(=S)NCc2cccnc2)cc1)N1CCCCC1,"inconclusive [inhibitor, single point]",
CCOC(=O)c1sc(NC(=O)C(CC)Sc2nc3ccccc3[nH]2)nc1C (stereo unspecified),"inconclusive [inhibitor, partial curve]",
O=C(Nc1nc(-c2ccccn2)cs1)c1ccc([N+](=O)[O-])o1,active: 8.91 µM,

SMILES,Potency,"activity change, negative = inhibition"
CC1(C)Cc2nc(NC3CCCCC3)c(C#N)cc2CO1,,inactive: -18.3%
Cn1c(CO)cnc1S(=O)(=O)Cc1ccc([N+](=O)[O-])cc1,"inconclusive [inhibitor, single point]",
CCOc1ccc(C(=O)N2CCCC(c3nc(-c4cccs4)no3)C2)cc1 (stereo unspecified),"inconclusive [inhibitor, single point]",
O=C(NC1(C(F)(F)F)NC(=O)N(Cc2ccccc2)C1=O)c1cccnc1 (stereo unspecified),,inactive: -3.06%
CC1CC(C)CN(c2ccc(C(=O)NCc3ccc4c(c3)OCO4)cc2[N+](=O)[O-])C1 (stereo unspecified),"inconclusive [inhibitor, full curve]",
CCCCCc1cc(=O)oc2c(C(CCN3CCCCC3)c3ccc4c(c3)OCO4)c(OC)cc(OC)c12 (stereo unspecified),"inconclusive [inhibitor, single point]",
Cn1nnnc1SCC(=O)Nc1ccc(Oc2ccccc2)cc1,"inconclusive [inhibitor, partial curve, poor fit]",
CCN1CCN(c2c(Cl)cccc2NC(=O)c2ccc(Br)o2)CC1,"inconclusive [inhibitor, full curve]",
Cc1ccc(S(=O)(=O)N(C)CC(=O)NNC(=O)CCS(=O)(=O)c2ccccc2)cc1,,inactive: 7.04%
COc1ccc(C(=O)Nc2cnn(Cc3c(F)cccc3Cl)c2)cc1OC,active: 12.6 µM,
CCN(CC)CCCN=Cc1c(O)n(Cc2ccccc2)c(=O)c2ccccc12,"inconclusive [inhibitor, single point]",
O=C(c1cc2sccc2n1Cc1ccc(F)cc1)N1CCN(c2nc3ccccc3s2)CC1,active: 3.16 µM,
Cc1ccc(S(=O)(=O)N(C)C)cc1NC(=O)CSc1nc2ccccc2c(=O)n1CC1CCCO1 (stereo unspecified),"inconclusive [inhibitor, single point]",
OCc1ccccc1SSc1ccccc1CO,,inactive: -10.3%
CCN(Cc1nc2cc(Cl)ccc2c(=O)[nH]1)C(=O)COc1ccccc1Cc1ccccc1,,inactive: -23.7%
Cc1ccc(N(CC(=O)N2CCCCCC2)S(C)(=O)=O)cc1Cl,,inactive: 3.63%
Cc1cc(C)n2nc(SCC(=O)N3CCCC(C)C3)nc2n1 (stereo unspecified),,inactive: -4.37%
COc1ccccc1NS(=O)(=O)c1ccc(NN=C2CCCC2)c([N+](=O)[O-])c1,"inconclusive [inhibitor, single point]",
O=C(N/N=C\c1ccc(-c2cccc(Cl)c2)o1)C(=O)NC1CCCC1,"inconclusive [inhibitor, single point]",
COc1cc(C(=S)N2CCCCC2)ccc1OCC(=O)N1CCCC1,,inactive: 16.5%
Cc1ccc(-c2csc(N3CCC[C@@H]3C(=O)NCCn3c(-c4ccncc4)nc4ccccc43)n2)cc1,"inconclusive [inhibitor, single point]",
O=C(O)c1ccccc1CSc1nnc2c(n1)[nH]c1ccccc12,,inactive: 0.663%
CC(C)(C)OC(=O)NCCCC(CCCNC(=O)OC(C)(C)C)C(=O)O,,inactive: 12.9%
CN(C)CC/C=C1/c2cc(F)ccc2CSc2ccc(F)cc21,"inconclusive [inhibitor, single point]",

SMILES,Potency,"activity change, negative = inhibition"
Cc1ccc(NC(=O)/C=C/c2ccc(Cl)cc2)nc1,"inconclusive [inhibitor, partial curve]",
Cc1nc2ccccc2c(=O)n1/N=C/c1cccnc1,,inactive: 12.5%
C[C@@H](C(=O)NCC1CCCO1)N1C(=O)N2CCc3c([nH]c4ccccc34)[C@@]2(C)C1=O (stereo partly specified),"inconclusive [inhibitor, full curve]",
CCN1CCN(c2ncc(C(=O)Nc3cc(Cl)c(OC)cc3OC)c3ccccc23)CC1,"inconclusive [inhibitor, partial curve]",
Cc1c(NN=C(C#N)C#N)c(=O)n(-c2ccccc2)n1C,"inconclusive [inhibitor, single point]",
O=C(NC1=NCCS1)c1cccc(F)c1,,inactive: 6.43%
C=CC(=O)Nc1ccc(CN2C(=O)N(c3c(Cl)c(OC)cc(OC)c3Cl)Cc3cnc(NCCCCN(CC)CC)nc32)cc1,"inconclusive [inhibitor, partial curve]",
Cc1ccc(NC(=O)COC(=O)Cc2csc(-c3cccc(F)c3)n2)cc1C,,inactive: 10.9%
N#Cc1ccc(CSc2nnc(NC(=O)c3ccc(=O)[nH]c3)s2)cc1,"inconclusive [inhibitor, single point]",
CC(NC(=O)Cc1ccsc1)c1ccc(F)cc1 (stereo unspecified),,inactive: 13.8%
COC(=O)c1sc(NC(=O)COc2ccccc2OC)nc1C,"inconclusive [inhibitor, partial curve]",
NNC(=O)Cc1cn(-c2ncc(C(F)(F)F)cc2Cl)c2ccccc12,"inconclusive [inhibitor, single point]",
[O-][n+]1c(/C=C/c2ccccc2)ccc2ccccc21,active: 10 µM,
COCCNC(=O)C(c1ccncc1)N(Cc1ccccc1)C(=O)Cn1nnc2ccccc21 (stereo unspecified),,inactive: 8%
CCn1c(=O)c(C(=O)NCc2ccc(OC)c(OC)c2)c(O)c2ccccc21,"inconclusive [inhibitor, single point]",
CC(=O)c1cccc(NS(=O)(=O)c2ccc(N/C=C\C(=O)c3ccc(F)cc3)cc2)c1,active: 11.2 µM,
CSCCOC(=O)c1[nH]c2c(c1C)C(=O)CC(c1ccco1)C2 (stereo unspecified),"inconclusive [inhibitor, partial curve]",
N=c1c2c(ncn1CCCO)Oc1c(ccc3ccccc13)C2c1ccccc1 (stereo unspecified),active: 11.2 µM,
Cc1ccc2c(c1)N(CCCC(=O)Nc1cccc(C(F)(F)F)c1)C(=O)CO2,"inconclusive [inhibitor, single point]",
O=C(CNCc1ccc(Cl)cc1)Nc1cc(S(=O)(=O)N2CCCC2)ccc1Cl,active: 7.94 µM,
COc1cccc(-c2nn(C)c3sc(C(=O)N4CCN(c5ccccn5)CC4)cc23)c1,active: 10 µM,
CCC(=O)N1CCc2cc(S(=O)(=O)CCC(=O)NCCc3ccc(OC)c(OC)c3)ccc21,"inconclusive [inhibitor, single point]",
O=C(Cn1cc(C(=O)c2ccco2)c2ccccc21)NC1CCCC1,"inconclusive [inhibitor, single point]",
